This note sets out measurements from ChEMBL document CHEMBL4888484, “Replenishing the malaria drug discovery pipeline: Screening and hit evaluation of the MMV Hit Generation Library 1 (HGL1) against asexual blood stage Plasmodium falciparum ,using a nano luciferase reporter read-out” (2022).

Screen size: about 150,000 compounds; about 540 (0.36%) showed an effect of 50% or more. This is one part of the list.

The experiment deals with Plasmodium falciparum. Description: Primary screen in NF54 nanoGlo assay, in single point, at 2uM, 72h; a lower Z score goes with more inhibition. The format is functional, Erythrocyte. Particulars: timepoint 72 hour.
In general, % Inhibition refers to the drop in the measured response relative to a control, in per cent. As for `O=C(CN1C(=O)CCn2nc(-c3cccc(Cl)c3)cc21)N1CCN(C(=O)c2ccco2)CC1`, the “% Inhibition” value was 5% and the Z score is -0.55.

On to `O=S(=O)(CC[C@H]1CCCCO1)NCC#Cc1cccnc1`, for which the “% Inhibition” value was -4% and the Z score is listed as 0.7.

For `CNC(=O)c1nc(-c2cccc(-c3ccccc3)c2)n[nH]1`, the “% Inhibition” value came to 0% and the Z score is on record as 0.01.

For `CCN1CCNC(=O)[C@@H]1CC(=O)Nc1ccc(-c2cn3ccc(C)cc3n2)cc1`, the “% Inhibition” value is -2% and the Z score was 0.41.

Take `Cc1ccc(OCc2cc(C(=O)NCc3n[nH]c(=O)[nH]3)oc2C)cc1`: the “% Inhibition” value was 2% and the Z score was -0.31.

Turning to `CC(C)[C@H](CNC(=O)NCc1cccnc1)N1CCN(C)CC1`, the “% Inhibition” value was -5% and the Z score worked out at 0.61.

With `CCCN1CCC[C@H](NC(=O)N(C)Cc2nc(-c3cccnc3)no2)C1`, the “% Inhibition” value was -2% and the Z score is recorded as 0.34.

On to `O=C(Nc1cc(C2CC2)nn1C1CCS(=O)(=O)C1)C1CC=CCC1` (centres undefined), for which the “% Inhibition” value is -11% and the Z score was found to be 2.12.

Take `O=C(c1ncoc1C1CC1)N(CCCn1ccnc1)Cc1cccnc1`: the “% Inhibition” value is -1% and the Z score turned out to be 0.18.

On to `Cc1ccsc1S(=O)(=O)N1C[C@H]2C[C@H](O)[C@@H](O)C[C@H]2C1`, for which the “% Inhibition” value was -6% and the Z score stood at 1.28.

In the case of `O=C(Cn1nnc(-c2ccc3c(c2)OCO3)n1)Nc1cccc(Br)c1`, the “% Inhibition” value stood at 0% and the Z score is -0.01.

Consider `C=CCC[C@H](O)CN1CCN(c2nc(-c3ccccc3)nc(CC)c2Cc2ccccc2F)CC1`, for which the “% Inhibition” value is given as 1% and the Z score is reported as -0.09.

For `CCCN(CCc1cccc(F)c1)C(=O)CCc1c(C)noc1C`, the “% Inhibition” value is -7% and the Z score is given as 1.31.

Consider `Cc1nn(C)cc1CN1CCC2(CCC(=O)N([C@H]3CC[C@H](O)CC3)C2)CC1`, for which the “% Inhibition” value was -6% and the Z score worked out at 0.64.

With `O=C(NCc1nc(-c2ccc[nH]c2=O)no1)c1cnc[nH]1`, the “% Inhibition” value was -13% and the Z score is on record as 2.26.

On to `CCCCn1cc(CNC(=O)N2CC[C@H](CC)C2)c(C)n1`, for which the “% Inhibition” value is -2% and the Z score came to 0.43.

As to `N#Cc1cc(F)ccc1NCCOCC1CC1`, the “% Inhibition” value was 0% and the Z score was found to be 0.06.

`Cc1ccccc1C1CC(Nc2ccc(N3C(=O)CCCC3=O)cc2)C1` (centres undefined): the “% Inhibition” value is listed as -7% and the Z score is on record as 0.71.

With `COCCN(C)C[C@H]1C[C@H](CO)CN(Cc2ccc(F)c(F)c2)C1`, the “% Inhibition” value was -16% and the Z score came to 2.37.

Regarding `COc1ccc(C2=NS(=O)(=O)N(C)C(C(=O)N3CCCC[C@@H]3C)=C2)cc1OC`, the “% Inhibition” value was -9% and the Z score came out at 1.65.

For `C[C@@H](C1CC1)N(C)C(=O)c1cnn(C)c1`, the “% Inhibition” value was -6% and the Z score was determined as 1.1.

Take `O=C(c1ccc2cc[nH]c2c1)N1CCCC[C@@H]1CCN1CCCC1`: the “% Inhibition” value is -6% and the Z score stood at 1.09.

Take `Cc1c(CNC(=O)NCc2cn(C)cn2)oc2ccccc12`: the “% Inhibition” value is recorded as -1% and the Z score was 0.1.

Take `CN(c1ccsc1)[C@H]1CCCNC1=O`: the “% Inhibition” value was found to be 7% and the Z score is on record as -0.68.

With `COC(=O)c1ccc(C(=O)N2C3CCC2CC(Oc2cccnc2)C3)cc1` (centres undefined), the “% Inhibition” value is reported as -4% and the Z score is listed as 0.59.

As to `Cc1cc(C)c2ccc3c(C)c(C)[nH]c3c2n1`, the “% Inhibition” value was -2% and the Z score worked out at 0.38.

`CC(C)C1OCCC1CNC(=O)CC1C=CCC1` (centres undefined): the “% Inhibition” value is -9% and the Z score was 1.48.

Consider `CC1(C)NC(=O)N(Cc2coc(-c3ccc(F)cc3)n2)C1=O`, for which the “% Inhibition” value is on record as -10% and the Z score came out at 1.17.

With `CN(Cc1ccccc1)C(=O)[C@H]1O[C@H](CCN2CCN(Cc3ccccc3)CC2)CC[C@@H]1O`, the “% Inhibition” value is -8% and the Z score is on record as 1.27.

Regarding `O=C(c1n[nH]c2ccccc12)N1CCCC1`, the “% Inhibition” value is -14% and the Z score is reported as 2.33.

With `CCCn1c(=O)c2sccc2n(CC(=O)NC2CCCCC2)c1=O`, the “% Inhibition” value is 2% and the Z score was -0.27.

As to `CCOCC(=O)Nc1ccc(C)nc1C`, the “% Inhibition” value amounted to 0% and the Z score is reported as 0.09.

Regarding `COc1ccc2oc(CNC(=O)[C@H]3C[C@@H]4C=C[C@H]3C4)nc2c1`, the “% Inhibition” value is given as -6% and the Z score is 0.87.

For the compound `CCN(CC)CCN(C(=O)c1ccc(S(=O)(=O)N2CCCCCC2)cc1)c1nc2c(OC)cccc2s1`, the “% Inhibition” value worked out at 17% and the Z score is -2.13.

Consider `CC(c1ccccc1)C(C)(O)C(=O)N1CCCC(c2nc(N(C)C)no2)C1` (centres undefined), for which the “% Inhibition” value is recorded as -11% and the Z score was found to be 1.73.

`Cc1ccc(N2CCN(C(=O)c3ccc4c(c3)N(C)[C@@H]3CCCCN3C4=O)CC2)cc1`: the “% Inhibition” value was -10% and the Z score was found to be 1.73.

In the case of `O=C(COc1ccccc1O)NC(c1ccc2c(c1)CCO2)[C@H]1C[C@@H](O)C1` (some centres undefined), the “% Inhibition” value is given as -13% and the Z score was 1.74.

As for `Cc1ccccc1-c1nc2n(n1)C1(CCCCC1)[C@@H]1CCCC[C@@H]1N2C(=O)C(C)C`, the “% Inhibition” value is -19% and the Z score worked out at 1.72.

In the case of `CC[C@H]1CN(CC)CCN1C(=O)c1cnc(C2OCCO2)s1`, the “% Inhibition” value stood at 7% and the Z score is recorded as -0.78.

Regarding `CC(C)c1ccc(NC(=O)[C@H]2Nc3cc(F)ccc3S(=O)(=O)N2)cc1`, the “% Inhibition” value was -8% and the Z score was determined as 0.95.

As for `COc1ccc(-c2nccn3cc(C(=O)NCc4c(C)nn(C)c4C)nc23)cc1`, the “% Inhibition” value is reported as -5% and the Z score came out at 0.91.

For the compound `CCOCC(=O)NC[C@H](O)c1ccccc1F`, the “% Inhibition” value was -11% and the Z score was 1.7.
